Experimental findings from patent US7589065 are described below.

The subject of series [1] is T1, Ala-Ala-Tyr-Ala-Ala.
T1 sequence: AAYAA

The subject of series [2] is T2, Ala-Leu.
T2 sequence: AL

Series [3] concerns T3, Suc-Ala-Phe-Pro-Phe-NHNp.
T3 sequence: AFPF

Turning to DnaK (letters omitted), in series [1], the “broadening of 2D 1H NMR exchange cross signals with 20 µM DnaK” value is given as “it is mainly the cross signal corresponding to the Ala-Tyr peptide bond that broadens under the influence of catalytic amounts of DnaK”, the relative intensity of the cross signal of the Ala-Tyr peptide bond (no addition: 3.50 ± 0.51) (relative intensity) was 6.37 and the relative intensity of the cross signal of the Tyr-Ala peptide bond (no addition: 3.89 ± 0.32) (relative intensity) is 3.39. For the same substance, the “rate constant (kobs) of the cis/trans isomerisation of Ala-Leu with 624 nM DnaK (non-catalysed reaction: 0.36 s^-1)” value in series [2] is “the catalysed reaction in a constant of 0.55 s^-1”. For the same substance, the “peptidyl-prolyl cis/trans isomerisation rate by isomer-specific proteolysis (chymotrypsin)” value in series [3] is given as “DnaK did not show a visible influence on the cis/trans isomerisation rate of the substrate”.
